# Test results published in PubChem BioAssay (NCATS).
# Values joined by “and” are separate entries in the source; they are usually repeats but may differ in a detail not shown here. Equal values may be shown once. This list was built around the results that the source calls inconclusive (neither active nor inactive); the mix of calls is not that of the screen. For some of these results: No potency is given beside an inconclusive call; the fits are too rough. Active and inactive are the calls of the source. Unless noted, the call rests on the fitted dose curve; in most records, active means well fitted curve in the direction sought with a large enough effect; inconclusive means small, poorly fitted or top-dose-only effect, or another doubt; inactive means no such curve, though single readings can be large; an effect the other way counts as inactive or inconclusive.
# Columns and labels:
# [1] = Cell Viability - Jurkat (AID 426;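 active means dose-dependent loss of cell ATP signal giving a full or clear fitted curve, ranked by lower potency value; inconclusive means weak partial curve or response only at the top dose; inactive means no loss of viability signal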;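 further: potency means the concentration at half of the fitted maximal effect; cells exposed to compound for 40 hours at 37 °C before ATP read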); settings: qHTS
# Outline: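 Seed 5000 Jurkat E6-1 cells/well; add compound; incubate 40 hr at 37 °C; add CellTiter-Glo; wait 20 min at room temperature; read luminescence. Fit concentration-response with Hill equation for AC50.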
# [2] = target: Mitogen-activated protein kinase 10 (Mus musculus) (UniProt Q61831); experiment: JNK3 AlphaScreen Assay (AID 530; active means well fitted curve in either direction with a large enough effect, not every such curve was filed as active; inconclusive means small, poorly fitted or top-dose-only effect, or another doubt;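 further: kinase came from lysate of stimulated human HepG2 cells; signal reports phosphorylation of biotinylated GST-cJun 1-79 at Ser73 with 10 µM ATP; potency means the concentration at half of the fitted maximal effect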); settings: JNK3 lysate, c-Jun phosphorylation; activity change, negative = inhibition: at 57.1 µM (top of the series)
# Outline: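 qHTS format: compounds tested as titrations against IL-1beta/TNF-alpha-activated HepG2 lysate JNK3 with biotin-GST-cJun substrate and 10 uM ATP at room temperature. Loss of anti-phospho-cJun AlphaScreen signal indicates inhibition.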
# [3] = Cell Viability - N2a (AID 540); settings: N2a mouse neuroblastoma cell viability; activity change, negative = cytotoxicity: at 92.2 µM (top of the series);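 further: cells exposed to compound for 40 h at 37 °C; plate controls were DMSO alone for no effect and tamoxifen control for full effect; nearly all actives have a fitted effect of over 45% in size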
# Outline: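 First, 1500 N2a cells per well incubate 5 hr at 37 °C; next, compounds are added and incubated 40 hr at 37 °C; finally CellTiter-Glo is added and luminescence read after 20 min, with AC50 derived by Hill modeling.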
# [4] = Cell Viability - LYMP2-004 (AID 966); settings: LYMP2-004 lymphoblastoid cell viability, qHTS; series mostly up to 92.2 µM;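 further: plate controls were DMSO only for no effect and tetraoctylammonium bromide control for full effect; nearly all actives have a fitted effect of over 65% in size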
# Outline: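 Acute toxicity is scored as a concentration-dependent drop in intracellular ATP, quantified by luciferase luminescence, in human lymphoblastoid cells exposed to compound for 24 hr. AC50 derives from Hill-equation modelling.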
# [5] = target: Peroxisome proliferator-activated receptor delta (Homo sapiens) (UniProt Q03181); experiment: qHTS assay for small molecule antagonists of peroxisome proliferator-activated receptor delta signaling (AID 588535; active means well fitted inhibition curve with a large enough effect in the signal ratio, with a control signal flat, not every such curve was filed as active; inconclusive means small, poorly fitted or top-dose-only effect, or effect the other way, or a change in a side signal; inactive means no such curve, though single readings can be large or run the other way; the % refers to the signal ratio); settings: HEK293T PPARd-UAS-bla, beta-lactamase FRET ratio, 18 h; activity change, negative = inhibition: at 76.7 µM (top of the series)
# Outline: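 Cells were seeded at 4000 per well in assay medium containing 2% charcoal/dextran FBS and held 5 hrs at 37 C. Compounds were then added for 18 hrs. CCF4 substrate was applied for 2 hrs at room temperature before fluorescence reading.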
# [6] = target: Peroxisome proliferator-activated receptor gamma (Homo sapiens) (UniProt P37231); experiment: qHTS assay for small molecule agonists of peroxisome proliferator-activated receptor gamma signaling (AID 588536; active means well fitted curve in the direction sought with a large enough effect in the signal ratio, with a control signal flat, not every such curve was filed as active; inconclusive means small, poorly fitted or top-dose-only effect, or effect the other way, or a change in a side signal; inactive means no such curve, though single readings can be large or run the other way; the % refers to the signal ratio;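 further: 0% = DMSO basal wells and 100% = rosiglitazone at 2 µM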); settings: HEK293 PPARg-UAS-bla, beta-lactamase ratio, 16 h; activation: at 76.7 µM (top of the series), percent of rosiglitazone response, DMSO as zero
# Outline: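 PPAR-gamma-UAS-bla HEK293 cells in medium with 1% charcoal/dextran-treated FBS were exposed to compounds for 16 h at 37 C. Beta-lactamase activity was read with CCF4 substrate (405 nm excitation, 460/530 nm emission).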
# [7] = target: Retinoic acid receptor RXR-alpha (Homo sapiens) (UniProt P19793); experiment: qHTS assay for small molecule antagonists of retinoid X receptor alpha signaling (AID 588546; active means well fitted inhibition curve with a large enough effect in the signal ratio, with a control signal flat, not every such curve was filed as active; inconclusive means small, poorly fitted or top-dose-only effect, or effect the other way, or a change in a side signal; inactive means no such curve, though single readings can be large or run the other way; the % refers to the signal ratio;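 further: cells stimulated with 9-cis-retinoic acid as agonist; on the % scale 0 is the no-effect control and ±100 the full control effect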); settings: HEK293T RXRa-UAS-bla, beta-lactamase ratio, antagonist mode
# Outline: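 Beta-lactamase reporter inhibition, read as CCF4 fluorescence ratio (ex 405, em 460/530 nm) after 2 h at RT. HEK293T UAS-bla cells, 2500/well, were stimulated with 9-cis-RA at 500 or 100 nM final alongside test compound for 18 h at 37 C.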
# [8] = qHTS assay for small molecule disruptors of the mitochondrial membrane potential - 1 hr assay (AID 651754; calls by dose curve; further: on the % scale 0 is the no-effect control and ±100 the full control effect; nearly all actives have a fitted effect of over 35% in size); settings: ratio change, negative = depolarisation: at 92.2 µM (top of the series)
# Outline: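 Steps: seed HepG2 cells and let attach overnight; pin-transfer compound or vehicle; incubate 1 hr at 37C; add Mito-MPS dye for 30 min; read two-channel fluorescence for monomer and aggregate forms.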
# [9] = qHTS assay for small molecule disruptors of the mitochondrial membrane potential - 5 hr assay (AID 651755; calls by dose curve; further: on the % scale 0 is the no-effect control and ±100 the full control effect; nearly all actives have a fitted effect of over 40% in size); settings: JC-1-type ratio dye; ratio change, negative = disruption: at 92.2 µM (top of the series)
# Outline: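 HepG2 cells (2,000/well), attached overnight, exposed to compound 5 hr at 37C, then Mito-MPS dye 30 min. Fluorescence read for monomers (490/535 nm) and aggregates (540/590 nm).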
# [10] = target: Nuclear receptor ROR-gamma (Homo sapiens) (UniProt P51449); experiment: qHTS assay for small molecule antagonists of the retinoid-related orphan receptor gamma (ROR-gamma) signaling pathway (AID 651802); settings: ROR-gamma antagonist cell reporter assay; series mostly up to 92.2 µM;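 further: CHO cells with doxycycline-induced ROR-gamma expression; luciferase reporter luminescence driven by ROR response element; on the % scale 0 is the no-effect control and ±100 the full control effect; nearly all actives have a fitted effect of over 60% in size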
# Outline: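 Antagonism is scored as a fall in luminescence from a RORE-luciferase reporter in CHO cells expressing ROR under a TET-inducible promoter, measured 16hr after doxycycline induction in the presence of compound.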
# Tags describe the fitted curve by direction and shape.
# Sequence of UniProt Q03181 (Q03181 whole entry, looked up): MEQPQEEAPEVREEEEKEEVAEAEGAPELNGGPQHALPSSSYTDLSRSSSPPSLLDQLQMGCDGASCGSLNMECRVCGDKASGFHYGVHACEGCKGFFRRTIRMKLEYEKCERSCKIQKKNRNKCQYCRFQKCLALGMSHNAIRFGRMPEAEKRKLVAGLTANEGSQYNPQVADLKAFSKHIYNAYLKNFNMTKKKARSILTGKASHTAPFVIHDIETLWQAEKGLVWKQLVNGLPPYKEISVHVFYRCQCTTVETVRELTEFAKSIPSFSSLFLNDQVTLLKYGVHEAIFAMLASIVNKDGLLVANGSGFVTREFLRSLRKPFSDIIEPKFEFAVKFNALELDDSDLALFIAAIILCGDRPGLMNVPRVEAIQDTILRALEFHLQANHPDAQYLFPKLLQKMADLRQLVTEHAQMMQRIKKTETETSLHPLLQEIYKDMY
# Sequence of UniProt P19793 (P19793 whole entry, looked up): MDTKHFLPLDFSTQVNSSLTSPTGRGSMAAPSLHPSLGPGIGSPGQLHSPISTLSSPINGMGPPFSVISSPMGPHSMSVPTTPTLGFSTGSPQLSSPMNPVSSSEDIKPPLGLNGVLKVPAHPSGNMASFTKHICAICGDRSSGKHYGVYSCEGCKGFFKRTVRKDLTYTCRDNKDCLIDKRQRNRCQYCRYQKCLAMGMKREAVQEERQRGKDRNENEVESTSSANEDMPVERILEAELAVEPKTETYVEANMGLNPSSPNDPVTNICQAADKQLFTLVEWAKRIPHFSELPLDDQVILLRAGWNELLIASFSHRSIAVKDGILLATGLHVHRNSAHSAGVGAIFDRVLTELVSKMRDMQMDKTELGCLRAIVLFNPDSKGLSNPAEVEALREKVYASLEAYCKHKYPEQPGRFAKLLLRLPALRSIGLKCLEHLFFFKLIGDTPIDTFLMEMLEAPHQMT
# Sequence of UniProt P51449 (P51449 whole entry, looked up): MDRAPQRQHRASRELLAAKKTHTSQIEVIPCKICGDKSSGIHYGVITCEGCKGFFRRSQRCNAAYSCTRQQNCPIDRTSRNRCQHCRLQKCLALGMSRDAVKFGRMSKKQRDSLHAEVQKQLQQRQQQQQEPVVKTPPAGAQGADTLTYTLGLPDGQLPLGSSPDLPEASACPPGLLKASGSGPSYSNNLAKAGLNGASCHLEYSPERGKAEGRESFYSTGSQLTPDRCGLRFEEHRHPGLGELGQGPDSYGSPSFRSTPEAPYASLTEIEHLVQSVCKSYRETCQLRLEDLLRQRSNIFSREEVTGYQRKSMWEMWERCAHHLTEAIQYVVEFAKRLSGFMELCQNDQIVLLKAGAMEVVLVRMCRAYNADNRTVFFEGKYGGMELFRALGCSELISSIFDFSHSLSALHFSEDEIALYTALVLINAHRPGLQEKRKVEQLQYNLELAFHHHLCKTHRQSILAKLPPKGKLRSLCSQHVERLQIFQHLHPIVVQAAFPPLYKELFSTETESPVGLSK
structure (smiles),measurement,setting,value
c1ccc(Nc2cccc3ccccc23)cc1,Potency,[1],inconclusive [single point]
same,Potency,[2],"inconclusive [activator, full curve]"
same,"activity change, negative = cytotoxicity",[3],inconclusive: -31.2%
same,Potency,[4],inactive
same,Potency,[5],inactive
same,activation,[6],inconclusive: -9.2% and inconclusive: -14.5%
same,max response,[7],inconclusive: -51.1%
same,"ratio change, negative = depolarisation",[8],inconclusive: -30.7%
same,"ratio change, negative = disruption",[9],inconclusive: -30.4%
same,Potency,[10],inactive
